Laboratory results published in PubChem BioAssay AID1745853 (National Center for Advancing Translational Sciences (NCATS), 2022).
The other results are listed elsewhere or left out. The main result of the screen is listed elsewhere. These columns were measured beside it and carry no call.

Legend:
Assay in all cases: Primary Screen for Target Class Profiling of Small Molecule Inhibitors of Methyltransferases
[1] = biological target: Glycine N-methyltransferase (Homo sapiens) (UniProt Q14749); conditions: purified enzyme, MTase-Glo SAH luminescence; measured here: GNMT inhibition; at 40 µM; stronger effect = lower value
Summary of the method: (§1)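 Each enzyme was assayed with SAM and its substrate. SAH formation detected by MTase-Glo luminescence; single-point 40 uM screen[…].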

[2] = biological target: Guanidinoacetate N-methyltransferase (Homo sapiens) (UniProt Q14353); conditions: purified enzyme, MTase-Glo SAH luminescence; measured here: GAMT inhibition; at 40 µM; stronger effect = lower value
Summary of the method: as §1

[3] = biological target: Histamine N-methyltransferase (Homo sapiens) (UniProt P50135); conditions: purified enzyme, MTase-Glo SAH luminescence; measured here: HNMT inhibition; at 40 µM; stronger effect = lower value
Summary of the method: as §1

[4] = biological target: Nicotinamide N-methyltransferase (Homo sapiens) (UniProt P40261); conditions: purified enzyme, MTase-Glo SAH luminescence; measured here: NNMT inhibition; at 40 µM; stronger effect = lower value
Summary of the method: as §1

[5] = biological target: Phenylethanolamine N-methyltransferase (Homo sapiens) (UniProt P11086); conditions: purified enzyme, MTase-Glo SAH luminescence; measured here: PNMT inhibition; at 40 µM; stronger effect = lower value
Summary of the method: as §1
% is scaled to controls: 0 for no effect and ±100 for the full control effect.

Row | Compound | activity change, negative = inhibition [1] | activity change, negative = inhibition [2] | activity change, negative = inhibition [3] | activity change, negative = inhibition [4] | activity change, negative = inhibition [5]
1 | O=C([C@H]1C[C@H](Oc2cccnc2)CN1C(=O)c1ccc2ccccc2n1)N1CCOCC1 | -3.62% | -9.77% | -2.51% | -10.8% | -6.98%
2 | COc1ccc(OC)c(-c2ccc(NC(=O)c3ccncc3F)cc2)c1 | -0.077% | -13.2% | 11.4% | -24.8% | -5.73%
3 | O=C(Nc1cc(-c2ccccc2)nn1-c1ccccc1)c1ccc([N+](=O)[O-])cc1 | 7% | -3.19% | 6.98% | -16.7% | -4.06%
4 | Cc1ccc(NC(=O)Cn2c(=O)oc3cc(S(=O)(=O)NCc4ccccc4)ccc32)cc1 | -6.41% | 0.044% | 6.07% | -2.17% | -0.231%
5 | O=C(Nc1c(-c2cccs2)nc2ccccn12)c1ccc(Cl)cc1 | -15.6% | -0.572% | 6.79% | -34.3% | 1.18%
6 | CCCCN1C(=O)c2cc(C(=O)Nc3cccc(C)c3C)nn2CC1(C)C(=O)NC1CCCC1 (stereo not drawn) | 2.33% | 0.34% | 3.98% | -0.785% | 4.25%
7 | COc1ccccc1C(=O)Nc1ccc2c(c1)C(=O)N(C)C1=NCCN12 | -4.54% | -1.29% | -13% | -2.64% | -3.8%
8 | CC1=C2C3OC(=O)C(C)C3(O)CCC2(C)CCC1 (stereo not drawn) | -0.926% | 3.02% | 4.49% | -8.38% | -1.8%
9 | COC[C@@H]1CN(C(=O)CCc2c(C)nn(C)c2C)C[C@H]1c1ccccn1 | -4.12% | -2.87% | -2.15% | -2.28% | -5.58%
10 | COC(=O)N1CCN(Cc2cccc(NC(=O)Nc3ccc(C)nc3)c2F)CC1 | -21.4% | -7.42% | -2.29% | -19.2% | -5.62%
11 | NC(=O)C1=CN(C2OC(COP(=O)(O)OP(=O)(O)OC[C@H]3O[C@@H](n4cnc5c(N)ncnc54)[C@H](OP(=O)(O)O)[C@@H]3O)C(O)C2O)C=CC1 (stereo partly drawn) | 21.9% | 51% | 19.1% | 126% | 29.6%
12 | O=C1CCC(c2ccccc2)(C2CCN(Cc3ccc(I)cc3)CC2)C(=O)N1 (stereo not drawn) | -3.55% | -8.15% | -7.46% | -26.6% | -6.11%
13 | COc1ccc(-c2cc3n(n2)CC(C)(C(=O)NC2CCCCC2)N(CC2CCCO2)C3=O)cc1 (stereo not drawn) | -0.277% | 3.69% | -0.658% | -5.9% | -6.78%
14 | O=C(O)CSc1cc(NS(=O)(=O)c2ccc(Br)cc2)c2ccccc2c1O | -95.6% | -50.7% | -79.3% | -37.5% | -83.5%
15 | Cc1ccc(NC(=O)Cn2nc3n(C(C)C)c(=O)c4ccc(C(=O)NCC(C)C)cc4n3c2=O)cc1 | -0.427% | 1.11% | 1.14% | 1.72% | 6.06%
16 | CC(=O)N[C@H]1[C@H](O[C@H]2CC[C@]3(C)C4CC=C5[C@@H]6CC(C)(C)CC[C@]6(C(=O)O)[C@H](O)C[C@@]5(C)[C@]4(C)CC[C@H]3C2(C)C)O[C@H](CO)[C@@H](O)[C@@H]1O (stereo partly drawn) | -3.75% | -26.1% | 1.2% | -27% | -8.66%
17 | CN(C)CCCN1c2ccccc2CCc2ccc(Cl)cc21 | -5.07% | 5% | -33.8% | -18.2% | 6.05%
18 | COc1ccccc1NS(=O)(=O)c1cc2c(cc1Cl)n(C)c(=O)n2C | 15.1% | 0.708% | 9.5% | 7.4% | 7.11%
19 | Cc1ccc(NC(=O)CN(C)S(=O)(=O)c2ccc3[nH]c4c(c3c2)CCCC4)cc1 | 4.39% | 0% | 2.08% | -2.42% | 3.55%

Row | Compound | activity change, negative = inhibition [1] | activity change, negative = inhibition [2] | activity change, negative = inhibition [3] | activity change, negative = inhibition [4] | activity change, negative = inhibition [5]
20 | Cc1cc(C(=O)N2CCC(F)(c3nc(-c4ccncc4)no3)CC2)n[nH]1 | -2.21% | 0.173% | -0.686% | -7.14% | 10.9%
21 | COc1cc(Br)c(S(=O)(=O)Nc2ccc(Cl)c(O[C@@H]3CCN(C)C3)c2)cc1OC | 1.94% | -5.2% | -28.2% | -20.8% | -9.99%
22 | CC(C)CCNC(=O)CCc1nnc2n(Cc3ccccc3)c(=O)c3ccccc3n12 | -5.02% | 3.08% | -4.1% | 4.94% | -5.67%
23 | CC(=O)O[C@@H]1CC[C@@]2(C)C(CC[C@]3(C)C2[C@H](O)C=C2[C@H]4[C@@H](C)[C@H](C)CC[C@]4(C)CC[C@]23C)[C@@]1(C)C(=O)O (stereo partly drawn) | 2.66% | 8.22% | 11% | -16.7% | 3.92%
24 | COc1ccc(OC)c(S(=O)(=O)N2CCC3(CC2)CN(c2ccccc2)C3=O)c1 | -0.942% | 2.16% | 13.7% | 3.45% | 9.68%
25 | COc1ccc(CN2C(=O)c3ccc(-c4ccccc4)n3CC2(C)C(=O)NC2CCCCCC2)cc1 (stereo not drawn) | 6.6% | 3.15% | 1.87% | -0.081% | 0.229%
26 | Cc1cc(C)n(CC(=O)N2CCCCCCNC(=O)[C@@H]3CCCC[C@@H]32)n1 | -0.01% | 3.14% | -0.413% | -1.09% | 2.76%
27 | CC1CCC(NC(=O)C2(C)Cn3c(ccc3-c3ccco3)C(=O)N2C2CCCC2)CC1 (stereo not drawn) | -1.3% | 4.42% | 0.315% | -3.31% | -1.75%
28 | O=C(NC1CC1)c1ccc2c(=O)nc3c(-c4ccc(F)cc4)n[nH]n3c2c1 | -3.13% | -1.86% | -8.31% | -4.46% | -7.58%
29 | CCC(=O)N[C@@H]1Cc2ccccc2[C@H](c2ccccc2)C1 | 5.2% | 3.48% | 12.7% | -8.45% | 4.12%
30 | CC(c1ccccc1)N1C(=O)c2ccccc2CC1(C)C(=O)NC1CCCCCC1 (stereo not drawn) | -7.05% | 1.52% | -1.92% | -7.11% | -6.93%
31 | CC1(C(=O)NC2CCCC2)Cn2c(cc3ccccc32)C(=O)N1Cc1ccc2c(c1)OCO2 (stereo not drawn) | 0.91% | 0% | 0.475% | -4.03% | 1.66%
32 | CNC(=O)[C@@H]1C[C@H](Oc2ccccc2)CN1S(=O)(=O)c1cccs1 | -4.35% | -0.321% | 0.688% | -0.805% | -9.97%
33 | CCC1c2ccc(C)n2CCN1C(=O)Nc1cc(C)ccc1C (stereo not drawn) | -8.57% | 0.091% | -10.2% | -11.4% | -11.8%
34 | Cc1c(Cl)cccc1N1C(=O)c2cc3occc3n2CC1(C)C(=O)NC1CCCC(C)C1C (stereo not drawn) | -8.56% | -8.56% | 4.66% | -15.2% | -6.67%
35 | Cc1cccc(NC(=O)N2CCn3c(C)ccc3C2C(C)C)c1C (stereo not drawn) | 2.83% | 0% | -4.95% | -3.68% | 2.73%
36 | CC(C)c1noc(-c2cn(C3CCN(C(=O)Cc4ccc(F)cc4)C3)nn2)n1 (stereo not drawn) | -0.768% | 2.78% | 1.93% | -0.44% | 0.973%
37 | CNC(=O)c1ccccc1Oc1nc(Nc2cc(OC)c(OC)c(OC)c2)ncc1Br |  | -17% |  | -22.1% | -6.66%
